# Measurements from PubChem BioAssay AID1671194 (National Center for Advancing Translational Sciences (NCATS), 2021).
# Hit rate of the full screen: of about 140,000 compounds, about 240 (0.17%) were called active. The shares of active, inactive and inconclusive entries below differ from those in the screen. Calls come from the whole dose curve; as a rule, active = well fitted inhibition curve with a large enough effect; inconclusive = small, poorly fitted or top-dose-only effect; inactive = no such curve, though single readings can be large or run the other way. A potency beside an inconclusive call is a rough fit, not a confirmed value.
# Assay: Primary qHTS assay for inhibitors of alpha-synuclein gene (SNCA) expression; note: nearly all actives have a fitted effect of over 45% in size
# Details: HEK-293 SNCA-luciferase knock-in, luminescence, 24 h; series mostly up to 57.2 µM
# Potency is the fitted concentration of half-maximal effect; tags give direction and shape of the fitted curve.
row,Structure (SMILES),Potency
1,CCN(C(=O)C(NS(=O)(=O)c1ccc(Br)s1)c1ccccc1)c1ccc(C)c(C)c1 (centres undefined),"inconclusive: 28.2 µM [inhibitor, single point]"
2,COc1cc(C2CC(=O)c3c([nH]c(C(=O)OC4CCCC4)c3C)C2)cc(OC)c1OC (centres undefined),"inconclusive: 31.6 µM [inhibitor, single point]"
3,OCC1CN(c2ncccn2)CC12CCN(C1CCSCC1)CC2 (centres undefined),inactive
4,OC[C@@H]1CN(C2CCCC2)C[C@H]1c1nc(-c2cccnc2)no1,inactive
5,CN(C1CCc2nn(CC3CC3)c(=O)n2CC1)S(=O)(=O)c1cccc(F)c1 (centres undefined),inactive
6,CN1C(=O)C2(CCN(C(=O)c3ccnn3C)CC2)c2ccccc21,inactive
7,COc1ccc(NC(=O)N[C@H]2C[C@@H](c3nc(-c4ccc(F)cc4)no3)N(C)C2)cc1,inactive
8,COc1cccc(CC(=O)Nc2c(C(=O)N3CCN(c4ccccc4F)CC3)oc3ccccc23)c1,"inconclusive: 1.41 µM [inhibitor, full curve, poor fit]"
9,CCn1c(-c2ccccc2)nn(CC(=O)NCc2noc(-c3ccco3)n2)c1=O,"inconclusive: 39.8 µM [inhibitor, single point]"
10,COCCn1c(=O)c2c(n1Cc1ccccc1)CN(Cc1ccc3c(c1)CCO3)CC2,"inconclusive: 56.2 µM [inhibitor, single point]"
11,CCc1nc2c(c(-c3ccc(Cl)cc3)n1)CN(Cc1ccc(OC)cc1)CC2,"inconclusive: 39.8 µM [inhibitor, single point]"
12,COc1cccc(CNC(=O)c2ccc3nc(-c4ccccn4)oc3c2)c1,inactive
13,CC1(c2ccccc2)N(Cc2ncccn2)C(=O)OC12CCN(Cc1cccc(OC(F)(F)F)c1)CC2 (centres undefined),inactive
14,Cc1c(CCC(=O)N2CCCCC2)c(=O)oc2cc3occ(C(C)(C)C)c3cc12,"inconclusive: 3.98 µM [inhibitor, partial curve, poor fit]"
15,O=C1c2ccccc2C(=O)c2c(NCCc3ccc(O)cc3)ccc(NCCc3ccc(O)cc3)c21,"inconclusive: 12.6 µM [inhibitor, partial curve, poor fit]"
16,CCC(C(=O)N1CCN(c2cc(C)ccc2C)CC1)n1nc(C)n2c(cc3occc32)c1=O (centres undefined),"inconclusive: 39.8 µM [inhibitor, single point]"
17,Cc1nnc(-c2cc(-c3ccsc3)ccn2)n1Cc1ccccc1,"inconclusive: 56.2 µM [inhibitor, single point]"
18,COc1cccc(N2C(=O)NC(=NC3CCCC3)C23CCN(Cc2ccc(F)cc2)C3)c1 (centres undefined),inactive
19,COc1cccc(CCC(=O)N2CCC3(CC2)NC(=O)N(c2ccccc2)N3)c1,"inconclusive: 11.2 µM [inhibitor, single point]"
